In all, about 280,000 compounds went through this assay and about 100 (0.036%) were called active. Inconclusive means that the source gave no clear call. Such entries were picked first, then a sample of the others. Calls follow the shape of the dose curve; as a rule, active = well fitted inhibition curve with a large enough effect in the signal ratio, with a control signal flat (not every such curve was filed as active); inconclusive = small, poorly fitted or top-dose-only effect, or effect the other way, or a change in a side signal; inactive = no such curve, though single readings can be large or run the other way; the % refers to the signal ratio. Where the call is inconclusive, the potency comes from a doubtful curve fit. A note “side channel” means that the fit belongs to a control or component signal, not to the main read-out.
What follows are molecules tested against Muscleblind-like protein 1 (Homo sapiens) (UniProt Q9NR56) (assay: qHTS Assay for Inhibitors of MBNL1-poly(CUG) RNA binding). Details: TR-FRET MBNL1-His/biotin-(CUG)12 binding, 665/545 ratio; activity change, negative = inhibition: at 57.5 µM (top of the series).
UniProt Q9NR56, sequence (Q9NR56 whole entry, looked up): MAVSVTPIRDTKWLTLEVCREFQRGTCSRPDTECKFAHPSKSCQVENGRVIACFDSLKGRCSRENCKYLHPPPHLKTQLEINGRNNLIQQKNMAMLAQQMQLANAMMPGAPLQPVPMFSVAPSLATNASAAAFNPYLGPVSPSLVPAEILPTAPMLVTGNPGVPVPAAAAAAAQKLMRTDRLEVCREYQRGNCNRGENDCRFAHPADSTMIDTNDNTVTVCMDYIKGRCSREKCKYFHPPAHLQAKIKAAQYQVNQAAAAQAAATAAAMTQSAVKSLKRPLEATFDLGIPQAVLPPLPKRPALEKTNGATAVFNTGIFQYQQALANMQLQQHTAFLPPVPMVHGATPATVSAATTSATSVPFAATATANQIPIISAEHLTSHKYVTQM
How it was run: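 Ratiometric TR-FRET (665 over 545 nm, excitation 340 nm) tracks disruption of MBNL1-His/biotin-(CUG)12 complex after 60 min at room temperature, with compounds at 92 nM to 58 uM final.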
With `COC(=O)CC/C(C)=N\Nc1ccc([N+](=O)[O-])cc1[N+](=O)[O-]` the Potency was inconclusive: 1.78 µM [quencher, side channel, full curve].
In the case of `Cc1nc2ccc(C(=O)N/N=C/c3cc([N+](=O)[O-])ccc3O)cc2[nH]1`, the Potency was “inactive”.
For `COc1cccc(-c2nc(CS(=O)(=O)CC(=O)N3CCN(c4ccccn4)CC3)c(C)o2)c1`, the Potency was inconclusive: 3.98 µM [quencher, side channel, single point].
In the case of `Cc1nn(C(C)c2n[nH]c(=S)n2-c2ccc(F)cc2)c(C)c1[N+](=O)[O-]` (stereo unspecified), the Potency was inconclusive: 7.94 µM [fluorescent, side channel, single point].
With `COc1cc(C2C3=C(CCCC3=O)Nc3[nH]n(-c4ccccc4)c(=O)c32)ccc1OC(C)=O` (stereo unspecified) the Potency was inconclusive: 25.1 µM [quencher, side channel, partial curve].
`NC(=O)N/N=C/c1ccc(-c2ccc([N+](=O)[O-])cc2)o1` was tested, and the Potency was inconclusive: 2 µM [quencher, side channel, full curve].
For `O=C(Cc1ccccc1)NC(=S)Nc1ccc2oc(-c3ccccc3)nc2c1`, the Potency was inconclusive: 0.1 µM [fluorescent, side channel, full curve].
`Cc1ccn2c(NC3CCCCC3)c(C)nc2c1` was tested, and the Potency was “inactive”.
In the case of `COc1ccc(CN2CCC(C(=O)c3ccc(Cl)cc3)CC2)cc1`, the Potency was “inactive”.
With `O=C(Nc1ccccc1Cl)ON=C1c2ccccc2-c2ccccc21` the Potency was inconclusive: 31.6 µM [quencher, side channel, single point].
With `CC/C(C)=N/Nc1cccc([N+](=O)[O-])c1` the Potency was inconclusive: 31.6 µM [quencher, side channel, partial curve].
For `CCNC(=S)NNC(=O)c1csc(C(C)C)c1`, the Potency was inconclusive: 100 µM [inhibitor, partial curve, poor fit].
With `O=S(=O)(Nc1nc(-c2ccccc2)cs1)c1cc(Cl)ccc1Cl` the Potency was “inactive”.
`CC(=O)Nc1ccc(NC(=O)C2CCN(C(=O)c3ccc([N+](=O)[O-])cc3)CC2)cc1` was tested, and the Potency was inconclusive: 17.8 µM [quencher, side channel, partial curve].
For `CC(=O)c1cccc(NC(=S)NCCCCc2ccccc2)c1`, the Potency was “inactive”.
`CN(C)c1ccc(/C=N/NC(N)=S)cc1[N+](=O)[O-]` was tested, and the Potency was inconclusive: 3.55 µM [quencher, side channel, full curve].
With `CS(=O)(=O)NCCCNc1c(Cl)cccc1[N+](=O)[O-]` the Potency was inconclusive: 25.1 µM [quencher, side channel, partial curve].
`N#Cc1c(NC(=O)c2cc(-n3cnnc3)ccc2Cl)sc2c1CCCC2` was tested, and the Potency was inconclusive: 8.91 µM [quencher, side channel, single point].
In the case of `NC(=O)NC(CC(=O)NCCc1ccccn1)c1ccccc1Cl` (stereo unspecified), the Potency was “inactive”.
In the case of `O=C(O)CCN1C(=O)/C(=C\c2cccc(OCC(=O)Nc3ccc(Cl)cc3)c2)SC1=S`, the Potency was “inactive”.
With `Cc1ccc(Cn2c(C)nc3c(c2=O)c2nc4ccccc4nc2n3Cc2ccco2)cc1` the Potency was inconclusive: 15.8 µM [quencher, side channel, partial curve].
`CC(C)(C)C(=O)N1CCc2cc(-c3csc(N)n3)ccc21` was tested, and the Potency was inconclusive: 20 µM [quencher, side channel, single point].
With `CCCCc1ccc(NC(=S)NCC2CCCO2)cc1` (stereo unspecified) the Potency was “inactive”.
For `CCCCC(=O)Nc1ccc2c3c(cccc13)C(=O)N2CC`, the Potency was inconclusive: 17.8 µM [quencher, side channel, partial curve].
With `COC(=O)CCC(=O)NC(=S)Nc1c(C)cccc1C` the Potency was inconclusive: 0.631 µM [fluorescent, side channel, partial curve].
`COc1ccc(NC(=O)CSc2ncc(-c3ccc(F)cc3)n2Cc2ccco2)cc1` was tested, and the Potency was inconclusive: 39.8 µM [quencher, side channel, single point].
In the case of `CSc1nnc2c(n1)OC(C)N(C(=O)c1ccccc1)c1ccccc1-2` (stereo unspecified), the Potency was inconclusive: 17.8 µM [quencher, side channel, partial curve].
For `Cc1cccc(C)c1NC(=O)COc1ccccc1C(=O)Nc1ccc(Br)cn1`, the Potency was inconclusive: 7.94 µM [fluorescent, side channel, full curve].
For `O=C(Nc1ccc(C2=NCCN2)cc1)c1ccc(Cl)c(C(=O)Nc2ccc(C3=NCCN3)cc2)c1`, the Potency was inconclusive: 100 µM [inhibitor, single point].
In the case of `O=C(c1ccccc1Sc1ccccc1[N+](=O)[O-])N1CCCCC1`, the Potency was inconclusive: 15.8 µM [quencher, side channel, partial curve].
In the case of `CCCCCC(=O)Nc1cccc(C2=NOC3(C2)C[C@@H](C(N)=O)N(C(=O)Cc2ccc([N+](=O)[O-])cc2)C3)c1` (stereo partly specified), the Potency was inconclusive: 25.1 µM [quencher, side channel, partial curve].
`O=C(/C=C/c1cccc(Cl)c1)NCc1cccs1` was tested, and the Potency was “inactive”.
In the case of `CC1CCCCN1CCNC(=O)c1ccc2c(=O)n(Cc3ccc(Cl)cc3)c(=S)[nH]c2c1` (stereo unspecified), the Potency was “inactive”.
In the case of `O=C(COc1ncnc2ccc(Br)cc12)NCc1ccco1`, the Potency was inconclusive: 20 µM [fluorescent, side channel, single point].
For `COc1ccc(-c2oc3ccccc3c2C(=O)OCc2ccccc2)cc1`, the Potency was “inactive”.
For `COC(=O)c1oc2ccc(Cl)cc2c1N`, the Potency was inconclusive: 25.1 µM [quencher, single point].
In the case of `CC(C)CC(=O)Nc1ccc2c(c1)oc1ccccc12`, the Potency was “inactive”.
In the case of `CCC1SC2=NC(C)=C(C(=O)OC)C(c3cccs3)N2C1=O` (stereo unspecified), the Potency was inconclusive: 14.1 µM [quencher, side channel, partial curve].
`COc1ccc(OC)c(C(=O)NC(CC(N)=O)c2ccc(NCCN3CCCC3)c([N+](=O)[O-])c2)c1` (stereo unspecified) was tested, and the Potency was inconclusive: 25.1 µM [quencher, side channel, single point].
`O=C(COc1cc2oc(=O)cc(-c3ccccc3)c2cc1Cl)NCC1CCC(C(=O)O)CC1` (stereo unspecified) was tested, and the Potency was inconclusive: 25.1 µM [quencher, side channel, single point].
For `CCn1nc(NC(=O)C2CCCO2)c2cc3cc(C)ccc3nc21` (stereo unspecified), the Potency was inconclusive: 28.2 µM [quencher, single point].
In the case of `O=C(Nc1ccc(NC(=O)c2cc3ccccc3o2)cc1)c1ccco1`, the Potency was “inactive”.
`Cn1c(=O)n(C)c2cc([N+](=O)[O-])c(N3CCN(C(=O)c4ccccc4Cl)CC3)cc21` was tested, and the Potency was inconclusive: 17.8 µM [quencher, side channel, partial curve].
With `CCOc1ccnc2c1c(=O)n(Cc1cc(OC)cc(OC)c1)c(=O)n2C` the Potency was inconclusive: 39.8 µM [fluorescent, side channel, single point].
For `COc1ccccc1N/N=C(\C#N)C(=N)N1CCOCC1`, the Potency was inconclusive: 35.5 µM [quencher, side channel, single point].
With `COc1cccc(C=Nc2cc(C)cc(C)c2)c1O` the activity change, negative = inhibition was inconclusive: 3.9% [phenotype inactive].
With `O=C(N/N=C(\c1ccccc1)c1cccnc1)c1cc(O)ccc1O` the Potency was inconclusive: 28.2 µM [quencher, side channel, partial curve].
For `COc1ccc(OC)c(/C=N/NC(=O)c2cnccn2)c1`, the Potency was inconclusive: 14.1 µM [quencher, side channel, partial curve].
`CC1=C(C#N)C(C)C2=C(CC(C)(C)CC2=O)N1` (stereo unspecified) was tested, and the Potency was inconclusive: 20 µM [inhibitor, single point].
With `OC1CCCN(Cc2ccc3ccc4cccc5ccc2c3c45)C1` (stereo unspecified) the Potency was inconclusive: 17.8 µM [quencher, side channel, partial curve].
`COc1ccc(/C=C2\COc3ccccc3C2=O)c(OC)c1` was tested, and the Potency was “inactive”.
For `COc1ccc2c(c1)[n+](=O)c(C(C)=O)c(C)n2[O-]`, the Potency was inconclusive: 22.4 µM [quencher, side channel, single point].
`COc1ccc(CN(C(=O)c2ccc(C)cc2)C2CCS(=O)(=O)C2)cc1` (stereo unspecified) was tested, and the Potency was “inactive”.
`COc1ccc(-c2cn3cccnc3n2)cc1NC(=O)C1CC1` was tested, and the Potency was inconclusive: 35.5 µM [quencher, single point].
For `CC1=C(CC(=O)O)c2cc(F)ccc2/C1=C\c1ccc(S(C)(=O)=O)cc1`, the Potency was inconclusive: 11.2 µM [quencher, side channel, partial curve].
For `O=C(/C=C/c1ccccc1)N/C(=C/c1ccccc1)C(=O)Nc1ccc(C(=O)O)cc1`, the Potency was inconclusive: 35.5 µM [quencher, side channel, partial curve].
For `O=C(Oc1ccc(N2C(=O)CCC2=O)cc1)c1ccccc1`, the Potency was inconclusive: 10 µM [quencher, side channel, partial curve, poor fit].
With `O=C(Cn1nc(-c2ccco2)ccc1=O)Nc1ccc(Br)cc1` the Potency was inconclusive: 17.8 µM [quencher, side channel, partial curve].
In the case of `Cc1cc2nsnc2c(S(=O)(=O)NCC(=O)O)c1C`, the Potency was inconclusive: 15.8 µM [quencher, side channel, partial curve].
`O=[N+]([O-])c1cc(S(=O)(=O)NC2=NCCCCC2)ccc1NCC1CCCCC1` was tested, and the Potency was inconclusive: 15.8 µM [quencher, side channel, partial curve].
With `COc1ccccc1C1CCN(c2ccc(CO)cc2[N+](=O)[O-])CC1` the Potency was inconclusive: 25.1 µM [quencher, side channel, partial curve].

Source: PubChem BioAssay AID2675 (National Center for Advancing Translational Sciences (NCATS), 2010)
% is scaled to controls: 0 for no effect and ±100 for the full control effect; potency is read from the fitted curve at half-maximal effect; tags tell the direction and shape of the fitted curve or compound fluorescence and quenching.
